The values below come from the supplement of paper PMC8792480.

Some of the results follow. Single values are uncertain, as repeats are few or missing.

For this experiment, the system named is A549. The experiment can be described thus: cell-surface PD-L1 MFI ratio relative to cisplatin alone (isotype-subtracted); higher = higher PD-L1 surface expression. To be noted: inducer: cisplatin 4 uM; 10 µM; 24 h. As for the experimental part: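 A549 and H460 NSCLC cells were treated with each library drug at 10 uM, then with radiation (8 Gy) or cisplatin (4 uM), and incubated for 24 h. Cell-surface PD-L1 was measured by flow cytometry as an MFI ratio: (MFI drug+inducer - MFI isotype)/(MFI inducer alone - MFI isotype). Hits were defined as ratio < 0.75.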
Regarding `COC(=O)[C@@H](N)CCCNC(=N)N[N+](=O)[O-]`, the “cell-surface PD-L1 MFI ratio” value was active: 0.718.
As for `COc1cc([C@@H]2c3cc4c(cc3[C@H](O)[C@H]3COC(=O)[C@@H]23)OCO4)cc(OC)c1OC` [Picropodophyllin (PPP)], the figure is inactive: 3.11; as for `CN1CCN(c2ccc([N+](=O)[O-])c3no[n+]([O-])c23)CC1`, inactive: 0.855.
